Results reported in KR20220081857A (dated 2022).

T1: 인간 OX40L 단백질 (OX40L-his; ACROBiosystems Cat# OXL-H52Q8) (human, UniProt P23510 51-183)
T1 sequence: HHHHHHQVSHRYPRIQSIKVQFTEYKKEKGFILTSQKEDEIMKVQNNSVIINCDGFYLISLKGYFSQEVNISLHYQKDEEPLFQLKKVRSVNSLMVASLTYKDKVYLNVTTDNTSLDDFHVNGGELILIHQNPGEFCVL


Tests used:
Assay in all cases: cell-based or functional assay
[1] = biological target: T2, 인간 TNFα (ACROBiosystems TNF-H5228) (human, UniProt P01375 fragment)
[2] = biological target: T2, 인간 TNFα (ACROBiosystems TNF-H5228); remark: listed apart in the source
[3] = biological target: T1, 인간 OX40L 단백질 (OX40L-his; ACROBiosystems …)

T2 sequence (P01375 77-233 limits assumed): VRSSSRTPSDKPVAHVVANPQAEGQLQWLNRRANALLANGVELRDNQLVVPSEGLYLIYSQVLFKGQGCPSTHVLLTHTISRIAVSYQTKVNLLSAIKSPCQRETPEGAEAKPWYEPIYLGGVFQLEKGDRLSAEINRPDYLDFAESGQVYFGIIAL

Row | IC50 (nM), TNFα blockade assay [1] | IC50 (nM), TNFα blockade assay [2] | IC50 (nM), OX40L blockade assay [3] | Binder
1 | 0.058 nM | – | – | 이중 특이성 항체 02C09-TNFαi LC (bispecific antibody) heavy: QMQLVQSGGGLVKPGGSLRVSCAASGFTFNYAWMSWVRQAPGKGLEWVGRIKGEPDGGTTEYADSVKGRFTISRDNSKNTLYLQMNSLRAEDTAVYYCVSRRGLDVWGQGTTVTVSSASTKGPSVFPLAPCSRSTSESTAALGCLVKDYFPEPVTVSWNSGALTSGVHTFPAVLQSSGLYSLSSVVTVPSSSLGTKTYTCNVDHKPSNTKVDKRV[letters of human IgG4 Fc with S228P (EU numbers) not shown] light: not shown
2 | – | 0.077 nM | 0.94 nM | 이중 특이성 항체 I3F07-TNFαi LC (bispecific antibody) heavy: QIQLAQSGAELVKPGASVKLSCKASGFTFPDYWMHWVKQRPGQGLEWIGEIDPPNGRTNYNEKFKSKATLTVDSSSNTAYMQLSRLTSEDSAVYYCARGIYYVDYWGQGTTLTVSSASTKGPSVFPLAPCSRSTSESTAALGCLVKDYFPEPVTVSWNSGALTSGVHTFPAVLQSSGLYSLSSVVTVPSSSLGTKTYTCNVDHKPSNTKVDKRV[letters of human IgG4 Fc with S228P (EU numbers) not shown] light: not shown

Where two headings read alike, the source gives them in different places.
